Data on 61 compounds can be found in PubChem BioAssay AID1508623 (National Center for Advancing Translational Sciences (NCATS), 2021).

The campaign covered roughly 48,000 compounds. About 450 (0.94%) were called active. Another 19% or so got no clear call; they are omitted. Calls come from the whole dose curve; as a rule, active = well fitted inhibition curve with a large enough effect; inconclusive = small, poorly fitted or top-dose-only effect; inactive = no such curve, though single readings can be large or run the other way. The list shows a part of the results.

The nature of this assay: Primary qHTS for Identification of Small Molecule Inhibitors of Huntingtin Promoter Activity. Note: nearly all actives have a fitted effect of over 50% in size. The settings on record: HEK293 HTT promoter firefly luciferase reporter (activity 0% = vehicle and -100% = no light), 24 h; series mostly up to 57.5 µM; activity change, negative = inhibition: at the top concentration. An outline of the steps:
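Firefly luciferase readout (Dual-Glo, 10 min RT) after 24 h, 37 °C compound exposure (final up to 57.5 uM) of HEK293 reporter cells cultured 24 h beforehand; PTC124 at 50 uM final as control inhibitor; activity scaled vehicle 0%, zero RLU -100%.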
A general note: qHTS replaces the single test concentration by a dilution series.
Take `COC(=O)c1sc2cccc(F)c2c1S(=O)(=O)Nc1cc(C)c(Cl)cc1OC`: the “activity change, negative = inhibition” value is inactive: -19.6%.
With `O=C(COc1ccc(Cl)cc1)Nc1ccc(-c2nc3cc(Cl)ccc3o2)c(O)c1` the figure was inactive: 56.4%; with `CCCNC(=O)C1CCC(Cn2c(=O)c3sccc3n(CC(=O)N3CCCC3)c2=O)CC1` (stereo unspecified), inactive: -5.09%.
The result for `CCc1cccc(C)c1NC(=O)CN1C(=O)c2ccccc2Sc2ncccc21` reads inactive: -15.7%; that for `CCCNC(=O)CN1C(=O)c2c(c3ccccc3n2C)C1c1ccc(OC)cc1` (stereo unspecified), inactive: -26.1%; that for `COc1ccc(CNC(=O)c2cc3oc4ccccc4c3n2C)cc1OC`, inactive: -27.6%.
With `CN[C@@H]1[C@@H](O)[C@@H](O[C@@H]2[C@H](O)[C@H](O[C@H]3OC(CN)=CC[C@H]3N)[C@@H](N)C[C@H]2N)OCC1(C)O` (stereo partly specified) the figure was inactive: 0.179%; with `CCc1ccc(S(=O)(=O)c2nnn3c2nc(N2CCC(C(N)=O)CC2)c2cc(Cl)ccc23)cc1`, inactive: -10.5%; with `Cc1c(C(=O)Nc2cccc(C#N)c2)sc2nc3n(c(=O)c12)CCCCC3`, inactive: 49.8%.
Take `CC(C)CC(=O)NCC1(N(C)C)CCCCC1`: the “activity change, negative = inhibition” value was inactive: -9.45%.
The result for `COc1ccc(CNC(=O)C(C)N2Cc3ccccc3C2=O)cc1` (stereo unspecified) reads inactive: -11.5%.
The result for `Cc1nc(-c2ccccc2)sc1CCNC(=O)C(=O)Nc1ccc2c(c1)OCCO2` reads inactive: 3.76%; that for `Cc1ccc(CNC(=O)CCCN2C(=O)c3cccnc3Oc3ccc(Cl)cc32)cc1`, inactive: -19.7%.
With `COc1cc(OC)c(NC(=O)N2CCc3c(sc4c3CCCC4)C2c2ccccc2)cc1Cl` (stereo unspecified) the figure was inactive: -28.6%; with `O=C(Nc1nnc(S(=O)(=O)N2CCCCCC2)s1)c1ccccc1Cl`, inactive: -17.7%.
Regarding `CCOc1ccc(NC(=O)c2cc3c(s2)-c2ccccc2OC3)cc1`, the “activity change, negative = inhibition” value was inactive: -21.8%.
As to `Cc1cccc(NC(=O)C(Cc2ccccc2)n2cccc2)c1C` (stereo unspecified), the “activity change, negative = inhibition” value is inactive: -20.8%.
With `COc1ccccc1Cc1nc2ccccc2nc1SCC(=O)N1CCc2ccccc21` the figure was inactive: -4.46%; with `COc1cc(N)c(Cl)cc1C(=O)NC1CCN(Cc2ccccc2)CC1`, inactive: 0.934%.
On to `COc1ccccc1N1CCN(c2ccc(-c3nc(-c4ccccc4C)no3)cc2[N+](=O)[O-])CC1`, for which the “activity change, negative = inhibition” value was inactive: 27.1%.
With `CCOC(=O)c1ccc(NC(=O)CSc2nccn2-c2ccc(OCC)cc2)cc1`, the “activity change, negative = inhibition” value is inactive: -33.2%.
The result for `FC(F)(F)c1cccc(-c2nnn3c2nc(NC2CCCCC2)c2ccccc23)c1` reads inactive: -16.2%; that for `Cc1cccc(N2CCN(C(=O)Cn3cnc4sc(C)c(S(=O)(=O)N5CCN(c6ncccn6)CC5)c4c3=O)CC2C)c1` (stereo unspecified), inactive: -9.07%.
With `CCC(C)NC(=O)C1CCN(C(=O)c2ccc(-n3ccc4ccccc43)s2)CC1` (stereo unspecified) the figure was inactive: -0.598%; with `COc1ccccc1CCNC(=O)Cc1c(C)c2c(cc(C)c3c(C)c(C)oc32)oc1=O`, inactive: -0.192%.
With `S=P(N1CC1)(N1CC1)N1CC1` the entry was “inactive”.
Take `COc1ccc(NC(=O)C(C)n2nnc3sc(-c4ccccc4)cc3c2=O)cc1Cl` (stereo unspecified): the “activity change, negative = inhibition” value was inactive: 8.74%.
With `CCOc1ccc(CCNC(=O)c2cc(=O)[nH]c3ccc(S(=O)(=O)N4CCCCC4)cc23)cc1OCC` the figure was inactive: -8.53%.
Take `CCOc1ccccc1CNC(=O)C1CCN(S(=O)(=O)c2c(C)noc2/C=C/c2ccc(C)cc2)CC1`: the “activity change, negative = inhibition” value is inactive: -22.7%.
In the case of `COc1cccc(NC(=O)C(=O)NCCc2csc(-c3ccc(C(F)(F)F)cc3)n2)c1`, the “activity change, negative = inhibition” value was inactive: 59.9%.
For `Cc1ccccc1OCC(=O)Nc1ccc(OCc2cc(=O)n3ccsc3n2)cc1`, the “activity change, negative = inhibition” value is inactive: -8.34%.
Turning to `CCOC(=O)c1cccc(NC(=O)N2CCC(CN3CCc4ccccc4C3)CC2)c1`, the “activity change, negative = inhibition” value is inactive: -29.2%.
Take `O=C(Cc1ccc(F)cc1)NCc1nc2cccnc2n1Cc1ccc(F)cc1`: the “activity change, negative = inhibition” value was inactive: 6.87%.
The result for `CCOc1ccc(S(=O)(=O)c2c[nH]c3ccccc3c2=O)cc1` reads inactive: -25.4%; that for `COc1ccc(CCNC(=O)C2CCN(c3ncnc4c3nc3n4CCCCC3)CC2)c(OC)c1`, inactive: -16.3%; that for `NS(=O)(=O)c1ccc(CCNC(=O)c2ccc3nc(Cc4ccccc4)oc3c2)cc1`, inactive: 0%.
With `CCCc1cc(=O)oc2cc(C)c3c(-c4cccc(OC)c4)coc3c12` the figure was inactive: 4.88%; with `CC1CCCN(Cc2nc3c(c(=O)n(C)c(=O)n3C)n2Cc2ccc(Cl)cc2Cl)C1` (stereo unspecified), inactive: -8.48%.
For the compound `CCOC(=O)c1cccc(NC(=O)N2CC(CC)Sc3ccccc32)c1` (stereo unspecified), the “activity change, negative = inhibition” value was inactive: -0.616%.
With `COc1cccc(-c2nc(SCC(=O)NCC3CCCO3)c(-c3ccc(F)cc3)[nH]2)c1` (stereo unspecified), the “activity change, negative = inhibition” value was inactive: -19.7%.
As to `CN(C)CCNC(=O)CN1C(=O)CCn2nc(-c3cn(C)c4ccccc34)cc21`, the “activity change, negative = inhibition” value is inactive: -1.93%.
Regarding `CCc1ccc(NC(=O)Cn2ncc3c(C)n(Cc4cccc(Cl)c4)c(C)c3c2=O)cc1`, the “activity change, negative = inhibition” value was inactive: 3.37%.
The result for `O=C(Nc1cccc(C(=O)N2CCN(c3ccccc3F)CC2)c1)c1nsc2ccccc12` reads inactive: -6.57%; that for `COC(=O)c1cc2sccc2n1Cc1nc(-c2cccc(Br)c2)oc1C`, inactive: -14.7%.
Consider `CCC1CCCCN1C(=O)CSc1n[nH]c(-c2ccccc2Cl)n1` (stereo unspecified), for which the “activity change, negative = inhibition” value is inactive: 22.5%.
Regarding `CCN(c1ccc(OC)cc1)S(=O)(=O)c1nnc(NC(=O)c2ccccc2C)s1`, the “activity change, negative = inhibition” value is inactive: -31.1%.
`CCOc1ccc(NC(=O)Cn2c(=O)n(CC3CCCO3)c(=O)c3ccccc32)cc1` (stereo unspecified): the “activity change, negative = inhibition” value was inactive: -11.1%.
With `CCc1ccc(-n2nc(C)c3c(C)cc(=O)n(CC(=O)NCc4ccc(C)cc4)c32)cc1` the figure was inactive: -8.52%; with `CCc1ccc(NC(=O)CSc2nc(C)cc(COC)c2C#N)cc1`, inactive: -10.1%.
The result for `CC(C)CCNc1nc2c(S(=O)(=O)c3ccc(Br)cc3)nnn2c2ccsc12` reads inactive: 0.589%; that for `CCc1cc2c(cc3c(=O)n(CC(=O)N4CCN(c5cc(Cl)ccc5C)CC4)nc(CC)n32)s1`, inactive: 0.525%.
The result for `CCCCCCc1cc2cc(-c3nnc(-c4ccc(C)cc4)o3)c(=O)oc2cc1O` reads inactive: -13.8%.
On to `C=Cc1ccc(Cn2c(=O)n(-c3ccc(C)cc3)c(=O)c3c2c2cc(OC)ccc2n3C)cc1`, for which the “activity change, negative = inhibition” value was inactive: -5.7%.
As for `CCOc1ccc2nc(N3CCCC(C(=O)NCc4ccccc4Cl)C3)sc2c1` (stereo unspecified), the “activity change, negative = inhibition” value was inactive: 32.2%.
For the compound `COc1ccc(CCNC(=O)CCCCCn2c(=O)[nH]c3cc(OC)c(OC)cc3c2=O)cc1OC`, the “activity change, negative = inhibition” value is inactive: 7.01%.
With `CC(=O)Nc1nnc(SCc2cc(=O)c3cccc(C)c3[nH]2)s1` the figure was inactive: -1.84%; with `CC1=C(C(=O)Nc2ccc(C)cc2C)C(c2cccn2C)n2ncnc2N1` (stereo unspecified), inactive: -5.61%; with `CC(C)C(=O)Nc1cccc(NC2=NS(=O)(=O)c3ccccc32)c1`, inactive: 4.66%.
The result for `NC(N)=NCCN1CCCCCCC1` reads inactive: 8.48% [at 0.739 µM].
The result for `CCOC(=O)c1cccc(NC(c2nnc(-c3ccccc3)o2)c2ccccc2F)c1` (stereo unspecified) reads inactive: -14.9%.
As to `Cc1ccc(C)c(N2CCN(c3nc4ccccc4c4nc(-c5cccnc5)nn34)CC2)c1`, the “activity change, negative = inhibition” value was inactive: -5.76%.
